Over roughly 4,500 sequences, “median log2 fold change of GCK-ALFA target abundance (FLAG IP / Myc IP barcode read proportion)” has its median near 0.078; the lowest 2% begin near -0.6. The list shows a part of the results.
B1: GBRAP_74_6500 (protein)
chain: MEEAEKKAEEFAELLRKGASREELLAHLDEMNVEALNLAVIKATEEAEKNAEELTEEQIDALAELADRVFAESEDPEAIDAAGRLVKILYERELRLREEE
B2: GBRAP_52_6019 (protein)
chain: MRERLRAFVEEVLALVRAGRLEEARARVEELIASLDEEEVLLLIEEVAALAAAAAPEDHDAVWRLAEMIAEAMERAGKDEVLADLLLARTAAALYEAEQR
B3: GBRAP_52_5874 (protein)
chain: KLEEAVKKLEEAVKAMKAGDEEKAKKILKEIVEEFDEETIIEAVKKLAEKVLGKSLEEAEAFYKTADLLAEILEEAGKDENVASYIEAIAGATLYTVEQK
B4: GBRAP_95_7072 (protein)
chain: DDDQLVIDSLAEVLETYVDLGKEEEARKAARELVELLKESGYLKLPSSLSLESRLLIVKEAAKILSEEDVKKLTEAILSSVEDEEEKKAIREELEKLLKE
B5: GBRAP_160_4653 (protein)
chain: SANMEKLIKEIEEILKEAVEMMKGESHEERVAIARDAEGQILLLLEENPEVTEEMEEEVDKIMRALVETIAANPDLTDEELAALFEKALKEIKETIEKLS
B6: GBRAP_83_6874 (protein)
chain: AEEITVAGPGDRVAELVDAAIDLHKEEGYEVSLEIIATPEQREAVLEALKKLAEAGVETDVTVLAVGATPEEAAALKAELEAIFAAAGVNNNVEVILEEP
B7: GBRAP_52_6054 (protein)
chain: MEEELKAQVEEAIALMKAGDEEAAKALLKKIAETLDEEELKLFAEIMAEAAAKAKPEDFDAMARLAELWEEALEEAGVDEAFADDALARIYAALYEAELK
B8: GBRAP_52_6359 (protein)
chain: ALEEALALLREALEAVLAGDRERARAILEELVATFDDETILAAVERLAAELADKSLEEAEAFLELALLLADVMDAAGRDPVTADAIEATAARLYMAVKAK
B9: GBRAP_160_4429 (protein)
chain: MEKLEKAIKEIRELFEEAAEMMKGQSAEERLVIVRVTKGEVLLTLEELGLLTDEIEKVIDETFAEIEAYIAAHPDISDEEFAALLEEAYDRIEEKLKKEF
B10: GBRAP_52_5940 (protein)
chain: MEEELEKIAEELIELALEGKDEELEKKAKEIAETYSDEEILKIAEKIAELAKKAPKEDLDAYFRLTEILTKQLEEAGRSEELISEIEGLMAKAMYENELK
B11: GBRAP_128_3202 (protein)
chain: VSPEAVAELKALAKEVIATKTDEAIKAFAKAVAEKLKAGEIDLDTLEEIVAYLGDGLSEDDIAKAMDALREALADVGPEYLATAQGVLGEKIMEKEEEEE
B12: GBRAP_52_5906 (protein)
chain: MRERLRRDLLEIIEAVKAGDRERAREIAERVAEEYNDEELRLAVEELARLALEAAPEDLPAWWETAEILAEALEEAGKEEVLADDLLAATAAAIHARLQA
B13: GBRAP_39_5633 (protein)
chain: EEEEEIELLESLAEAELAKRKVETGKSDEELYKELLKEAREKAKDNPELLALLEELDKLAEKKGEEAKERLTAIMALLLSGEPLEDVKKLMEAEIKRLKK
B14: GBRAP_125_3118 (protein)
chain: SMEEDLENLAIVLRALGLDEEDIEEALRLAREHGLKGTMIAVLKALGYEEAAELVEKLTEEEVRAVVAELAAEIRANPDLTPEEVKKRLLELLKEALEKS
B15: GBRAP_184_5045 (protein)
chain: TVLEREIEVEDKAELEAAMAALRAEAATVKGTLILLVKAPKFTKEMVETLMAALKDMLDAGYVTSVTVGLDGEMSEEVVDLAVELADEAGVNLVLALEEE
B16: GBRAP_78_6673 (protein)
chain: KVEEELDKAIEELNKAAKILIEMNTEEAQEILGKVVDAMSILVELQEGEANLEDAEEALKLLKEALKEVKKINTEEAKEAAKEIEEAIKHLEKAIKLLKE
B17: GBRAP_43_5769 (protein)
chain: SKELVEGAFETAILMLQDPSISEETKVKAIIAAMELAADEGYVDEKLLEEMIEEAGKTLSKESLKKILEAAKELAKKYPHAKEAFEKAAKKLEEAIKKKE
B18: GBRAP_128_3476 (protein)
chain: SDEEILAEAKKLAEEIVAAPVEEVPALVERYAKLLEKANPEVREAIAEILKAKIPELSEEKLEALYETLRELAKKANPEVQFYLNEIAVEAGQQILELEE
B19: GBRAP_52_6380 (protein)
chain: MVEEAKKILREAIELIMKGGPLEEVKALAKELLKYPEEVIEEAARLLAEELKGWSPEEAEKALEAALELGDILIEAGLPEEVASLIEAEIGKAAYEVLQK
B20: GBRAP_14_3856 (protein)
chain: MEELVKAVEKAAEETKEFAKELLPEHAEEIIKKIEELAKEMIKKIKEENLNKEEVAELADEAAEKLGKYIKEEGFANDEEIAALKAHLINEMLLELEKVE
B21: GBRAP_184_5066 (protein)
chain: SVAEETLEVRDLAEARAKLAALRAAVADHRGDLVVHLVLPEFDREIVALVLEGLAEIRAAGYARRVTVGLDADLTEEEADFAIELADAAGVNLTLALPEE
B22: GBRAP_160_4139 (protein)
chain: SEELEKLIKEIKEITEEAIELIEDESRENAKTIARVALGEIVLLVESNEAVSDETEDKVGKIVDEAEKKLDENEDLTNEEIKEILKKAAEEVIKIIEEEI
B23: GBRAP_160_4035 (protein)
chain: SEKLKKLKEFTKELFEEAKELVEGQSAEQRAAIAAVTGGQVILEAEELGIDNDELHDKIDAITDELVDYLLAHPDLSEEEVKALIEEARDKILKAIEESE
B24: GBRAP_160_4869 (protein)
chain: SEKLERALKIVEENEKEALDAVKEAPASQRAAIAAAIAGEAIQELIEEGLVSDELEDELMKIVDELEAKLKANADASVEEHQALIKEAFEKMKEVIKKHM
B25: GBRAP_184_5119 (protein)
chain: EVVRESVEGTDAEELIAKAEAVVAAAAAAGKRLLLHVFAKNMSVEEIIKVIEHLGKLKAAHPEVEIILDVLDEKSEEEIDKIVEAADKAGVRVVVAIKEE
B26: GBRAP_84_7003 (protein)
chain: SLEERRLAVVQEILERSSIELKALLLTYLLLKNENKEATLALNDLLKEDPEAAVEALDKAQEYYEEDKEEEAEKELLEKAKEEGEEVAELVKEYLELTKK
B27: GBRAP_128_3537 (protein)
chain: SLEEVKARAEEVMEKIKESDVETAYEITKEFLEELKSLSLEEVEAAIEVLEERLPELTAEKLEAIADAMREERPKLSPEKQNLVADLEVEALNEAEEKEE
B28: GBRAP_52_5902 (protein)
chain: SSARARELAEAVVAAIEAGDFEKAVELIVEALLTLSDEEIDEFARRLRELLAGRSLADAEAAVEAVDKAGEIALKKGADEDKVLLVEGAAEAALVEVELR
B29: GBRAP_52_6136 (protein)
chain: MEEELREKAERIIELVKEGKLEEARKLAKELAEELNDEELRLFAEEFAELVKKLPKEDLDAAAEAMDIVVDELEKVGHPEELISYFIGKATTAMYEVELK

Target: GABARAP, O95166
Sequence (O95166 whole entry, the tested form may be a part): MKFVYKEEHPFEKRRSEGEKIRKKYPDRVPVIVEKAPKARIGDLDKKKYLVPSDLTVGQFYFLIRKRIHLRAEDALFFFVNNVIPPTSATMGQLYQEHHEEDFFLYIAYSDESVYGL
Assay: median log2 fold change of GCK-ALFA target abundance (FLAG IP / Myc IP barcode read proportion) (log2 ratio); each designed protein is fused to an ALFA-tag nanobody in HEK293 cells to bring the named protein to FLAG-tagged glucokinase (GCK); Myc marks an untargeted standard; higher = target protein stabilised (more abundant)
Settings: target protein: 3xFLAG-MCP-GCK-ALFA reporter; HEK293 landing pad (RPLP)
Procedure, shortened: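 Binders fused to an ALFA nanobody were recombined as a library into HEK293 landing-pad cells, which were induced with 2 μg mL^−1 doxycycline and then transfected to express a FLAG-tagged target and a Myc-tagged standard. After 48 h, circular RNA barcodes recovered by anti-FLAG and anti-Myc immunoprecipitation of lysates were reverse transcribed, amplified and sequenced. Each binder's target abundance is the median log2 ratio of FLAG to Myc barcode read proportions, from barcodes present at ≥10^−7 in both replicates, binders carrying ≥3 barcodes per replicate, a 10^−6 pseudocount and pooled replicates.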

| Binder | median log2 fold change |
| --- | --- |
| B1 | 0.134 |
| B2 | -0.142 |
| B3 | -0.0786 |
| B4 | 0.353 |
| B5 | 0.0632 |
| B6 | 0.164 |
| B7 | 0.0355 |
| B8 | -0.203 |
| B9 | 0.0186 |
| B10 | 0.291 |
| B11 | 0.179 |
| B12 | -0.331 |
| B13 | 0.334 |
| B14 | 0.278 |
| B15 | 0.0756 |
| B16 | 0.127 |
| B17 | 0.312 |
| B18 | 0.306 |
| B19 | 0.227 |
| B20 | 0.197 |
| B21 | 0.0273 |
| B22 | -0.0507 |
| B23 | -0.112 |
| B24 | 0.257 |
| B25 | -0.275 |
| B26 | -0.157 |
| B27 | 0.0317 |
| B28 | -0.361 |
| B29 | 0.0743 |

From the supplement of paper PMC12632987
